# Measured values published in the supplement of paper PMC9135407.
# “And” between values parts separate entries of the source, which are not always exact repeats. Equal values may be shown once. Where a name gives a salt, the structure may show the parent alone. Among all 5,800 compounds or so, about 620 (11%) showed activity.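 The calls were made as follows: active = score above a cut-off or among the top three wells of a plate; in these data no inactive exceeds 0.85.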 Only a part is listed here, and it is no random draw.
# Test system: primary human hepatic stellate cells (donor 1)
# Assay: scaled lipid accumulation score (0 = DMSO-like, 1 = nortriptyline-like); higher = stronger HSC inactivation (lipid re-accumulation), active = hit call of the paper
# Conditions: 48 h
# [1] = library stock concentration: 1 mM
# [2] = library stock concentration: 10 mM
# [3] = library stock concentration: 3.33 mM
# [4] = library stock concentration: 2 mM
# [5] = library stock concentration: 80 uM
# [6] = library stock concentration: 400 uM
structure (smiles),measurement,setting,value
CCCCCCC[C@H](O)/C=C/[C@@H]1[C@@H](C/C=C\CCCC(=O)O)[C@@H](O)C[C@H]1O [20-ethyl Prostaglandin F2.alpha.],scaled lipid accumulation score,[1],inactive: ≤ 0
Cc1cc(Nc2cc(N3CCN(C)CC3)nc(/C=C/c3ccccc3)n2)n[nH]1,scaled lipid accumulation score,[2],inactive: 0.603
Oc1cc(O)c(Cl)cn1 [Gimeracil],scaled lipid accumulation score,[3],inactive: 0.014
same,scaled lipid accumulation score,[2],inactive: 0.04
O=C(CCC/C=C\C[C@H]1C(=O)C[C@@H](O)C1/C=C/[C@@H](O)CCc1ccccc1)NC(CO)CO (some centres not stated) [17-phenyl trinor Prostaglandin E2 serinol amide],scaled lipid accumulation score,[1],inactive: ≤ 0
O=C1Cc2c([nH]c3ccc(Br)cc23)-c2ncccc2N1 [1-Azakenpaullone],scaled lipid accumulation score,[3],inactive: 0.405
same,scaled lipid accumulation score,[2],inactive: 0.808
CC1(C)CCC(C)(C)c2cc(C(=O)Nc3ccc(C(=O)O)cc3)ccc21,scaled lipid accumulation score,[1],inactive: ≤ -0.021
same,scaled lipid accumulation score,[2],inactive: 0.042
COC(=O)C1=C(C)NC(C)=C(C(=O)OCC(C)C)C1c1ccccc1[N+](=O)[O-] (configuration not stated),scaled lipid accumulation score,[2],inactive: 0.325
COC(=O)C1=C(C)NC(C)=C(C(=O)OCC(C)C)C1c1ccccc1[N+](=O)[O-] (configuration not stated) [Nisoldipine],scaled lipid accumulation score,,inactive: ≤ 0
same,scaled lipid accumulation score,[3],inactive: ≤ 0
same,scaled lipid accumulation score,library stock concentration: 5.1 mM,inactive: ≤ -0.006 and inactive: ≤ 0
same,scaled lipid accumulation score,[2],inactive: 0.114
Nc1ccccc1NC(=O)c1ccc(CNc2nccc(-c3cccnc3)n2)cc1 [Mocetinostat],scaled lipid accumulation score,[4],active: 0.728
same,scaled lipid accumulation score,[2],active: 0.648
Cn1cc(-c2[nH]c3cc(NC(=O)[C@H](N)C4CCCCC4)cc4c3c2C=NNC4=O)cn1,scaled lipid accumulation score,[3],inactive: ≤ 0
same,scaled lipid accumulation score,[2],inactive: 0.077
CC[C@@H]1/C=C(\C)C[C@H](C)C[C@H](OC)[C@H]2O[C@@](O)(C(=O)C(=O)N3CCCC[C@H]3C(=O)O[C@H](/C(C)=C/[C@@H]3CC[C@@H](O)[C@H](OC)C3)[C@H](C)[C@@H](O)CC1=O)[C@H](C)C[C@@H]2OC [Ascomycin (FK-520)],scaled lipid accumulation score,library stock concentration: 6.3 mM,inactive: 0.038
CC1(C)CNc2cc(NC(=O)c3cccnc3NCc3ccncc3)ccc21 [Motesanib (AMG-706) (2 mM)],scaled lipid accumulation score,[4],inactive: 0.209
CC1(C)CNc2cc(NC(=O)c3cccnc3NCc3ccncc3)ccc21 [Motesanib (AMG-706) (10 mM)],scaled lipid accumulation score,[2],inactive: 0.128
CC1(C)CNc2cc(NC(=O)c3cccnc3NCc3ccncc3)ccc21,scaled lipid accumulation score,[5],inactive: 0.035
same,scaled lipid accumulation score,[6],inactive: 0.008
same,scaled lipid accumulation score,[4],inactive: 0.012
same,scaled lipid accumulation score,[2],inactive: ≤ 0
CC1(C)CNc2cc(NC(=O)c3cccnc3NCc3ccncc3)ccc21 [Motesanib Diphosphate (AMG-706)],scaled lipid accumulation score,[3],inactive: 0.031
same,scaled lipid accumulation score,[2],inactive: ≤ 0
CC1(C)CNc2cc(NC(=O)c3cccnc3NCc3ccncc3)ccc21 [Motesanib (AMG-706) (0.4 mM)],scaled lipid accumulation score,[6],inactive: ≤ -0.005
CCCCCCCCCCCCCCCC(=O)NCCS(=O)(=O)O [N-Palmitoyl Taurine],scaled lipid accumulation score,[1],inactive: ≤ 0
CC(=O)Nc1ccc(C(=O)O)cc1,scaled lipid accumulation score,[2],inactive: ≤ 0
CCCCC[C@H](O)/C=C/[C@H]1[C@H](O)CC(=O)[C@@H]1CCCCCCC(=O)O [Alprostadil],scaled lipid accumulation score,,inactive: ≤ 0
same,scaled lipid accumulation score,[3],inactive: ≤ 0
same,scaled lipid accumulation score,[2],inactive: ≤ 0 and inactive: 0.01
CCCCC[C@H](O)/C=C/[C@H]1[C@H](O)CC(=O)[C@@H]1CCCCCCC(=O)O [Prostaglandin E1],scaled lipid accumulation score,[1],inactive: ≤ 0
same,scaled lipid accumulation score,[2],inactive: ≤ 0
CCCCC[C@H](O)/C=C/[C@H]1[C@H](O)CC(=O)[C@@H]1CCCCCCC(=O)O [Prostaglandin  E1],scaled lipid accumulation score,[1],inactive: ≤ -0.021
O=C(O)c1cccnc1C(=O)O [Quinolinic acid],scaled lipid accumulation score,[2],inactive: ≤ 0
O=C(O)c1ccccc1 [Benzoic Acid],scaled lipid accumulation score,[3],inactive: ≤ 0
same,scaled lipid accumulation score,[2],inactive: 0.005
O=C(O)c1ccccc1 [Benzoic acid],scaled lipid accumulation score,library stock concentration: 16.4 mM,inactive: ≤ 0
CN(CC[C@@H](Oc1ccc(C(F)(F)F)cc1)c1ccccc1)CC(=O)[O-].[Li+],scaled lipid accumulation score,[2],inactive: 0.149
CC[C@@H]([C@H](C)O)n1ncn(-c2ccc(N3CCN(c4ccc(OC[C@@H]5CO[C@@](Cn6cncn6)(c6ccc(F)cc6F)C5)cc4)CC3)cc2)c1=O [Posaconazole],scaled lipid accumulation score,[3],inactive: 0.134
CCOc1ccc(NC(C)=O)cc1 [Phenacetin],scaled lipid accumulation score,,inactive: 0.45
same,scaled lipid accumulation score,[3],inactive: ≤ 0
same,scaled lipid accumulation score,[2],inactive: ≤ 0
CC(C)[C@H](N)C(=O)OCC(CO)OCn1cnc2c(=O)[nH]c(N)nc21 (some centres not stated) [Valganciclovir HCl],scaled lipid accumulation score,[3],inactive: ≤ 0
same,scaled lipid accumulation score,[2],inactive: 0.028
O=C(c1ccc(OCCCc2c[nH]cn2)cc1)C1CC1 [Ciproxifan],scaled lipid accumulation score,[3],inactive: ≤ 0
same,scaled lipid accumulation score,[2],inactive: 0.186
O=C(c1ccc(OCCCc2c[nH]cn2)cc1)C1CC1 [Ciproxifan hydrochloride],scaled lipid accumulation score,[2],inactive: 0.432
CN1CCN(c2nc(C3=C(c4c[nH]c5ccccc45)C(=O)NC3=O)c3ccccc3n2)CC1 [Sotrastaurin],scaled lipid accumulation score,[5],inactive: 0.028
same,scaled lipid accumulation score,[6],inactive: 0.007
same,scaled lipid accumulation score,[4],inactive: ≤ 0
same,scaled lipid accumulation score,[3],inactive: 0.035
same,scaled lipid accumulation score,[2],inactive: ≤ 0 and inactive: 0.476
COc1cc2ncnc(Nc3ccc(F)c(Cl)c3)c2cc1OCCCN1CCOCC1,scaled lipid accumulation score,[5],inactive: ≤ -0.003
same,scaled lipid accumulation score,[6],inactive: ≤ -0.009
same,scaled lipid accumulation score,[4],inactive: 0.19
same,scaled lipid accumulation score,[2],inactive: 0.65
"COc1cc2ncnc(Nc3ccc(F)c(Cl)c3)c2cc1OCCCN1CCOCC1 [Gefitinib (ZD1839, Iressa) (0.4 mM)]",scaled lipid accumulation score,[6],inactive: 0.081
COc1cc2ncnc(Nc3ccc(F)c(Cl)c3)c2cc1OCCCN1CCOCC1 [Gefitinib],scaled lipid accumulation score,library stock concentration: 4.5 mM,inactive: 0.19
COc1cc2ncnc(Nc3ccc(F)c(Cl)c3)c2cc1OCCCN1CCOCC1 [Gefitinib (ZD1839)],scaled lipid accumulation score,[3],inactive: 0.43
C=C(c1ccc(C(=O)O)cc1)c1cc2c(cc1C)C(C)(C)CCC2(C)C [Bexarotene],scaled lipid accumulation score,[3],inactive: ≤ 0
same,scaled lipid accumulation score,library stock concentration: 5.7 mM,inactive: ≤ -0.006
same,scaled lipid accumulation score,[2],inactive: ≤ 0
CCCNCC(O)COc1ccccc1C(=O)CCc1ccccc1.Cl (configuration not stated) [Propafenone hydrochloride],scaled lipid accumulation score,[2],active: 0.887
CN(C)CCCCC(=O)Nc1ccc(NC(=S)NC(=O)c2ccc(C(C)(C)C)cc2)cc1 [Tenovin-6],scaled lipid accumulation score,[1],inactive: 0.143
same,scaled lipid accumulation score,[2],inactive: 0.405
NS(=O)(=O)c1cc2c(cc1Cl)NC(CC1CCCC1)NS2(=O)=O (configuration not stated) [Cyclopenthiazide],scaled lipid accumulation score,,inactive: ≤ 0
O=C(O)CCCCC1CCSS1 (racemic) [DL-.alpha.-Lipoic Acid],scaled lipid accumulation score,[1],inactive: ≤ 0
O=C(O)CCCCC1CCSS1 (racemic) [(?)-alpha-Lipoic Acid],scaled lipid accumulation score,[2],inactive: ≤ 0
CC(C)(C)NCC(O)c1cc(O)cc(O)c1 (configuration not stated) [Terbutaline Sulfate],scaled lipid accumulation score,[2],inactive: 0.003
CC(C)(C)NCC(O)c1cc(O)cc(O)c1 (configuration not stated) [Terbutaline hemisulfate],scaled lipid accumulation score,,inactive: 0.031
same,scaled lipid accumulation score,library stock concentration: 6.2 mM,inactive: ≤ 0
same,scaled lipid accumulation score,[2],inactive: ≤ 0
CCOC(=O)[N-]c1c[n+](N2CCOCC2)no1 [Molsidomine],scaled lipid accumulation score,,inactive: 0.065
same,scaled lipid accumulation score,[1],inactive: 0.02
same,scaled lipid accumulation score,library stock concentration: 8.3 mM,inactive: ≤ -0.006 and inactive: ≤ 0
same,scaled lipid accumulation score,[2],inactive: ≤ 0 and inactive: ≤ -0.05
CC[N+](CC)(CC)CCOc1cccc(OCC[N+](CC)(CC)CC)c1OCC[N+](CC)(CC)CC [Gallamine triethiodide],scaled lipid accumulation score,,inactive: ≤ 0
same,scaled lipid accumulation score,[2],inactive: ≤ -0.056
CC[N+](CC)(CC)CCOc1cccc(OCC[N+](CC)(CC)CC)c1OCC[N+](CC)(CC)CC [Gallamine Triethiodide],scaled lipid accumulation score,[3],inactive: ≤ 0
same,scaled lipid accumulation score,[2],inactive: ≤ 0
O=C(O)CCC/C=C\C[C@H]1C(=O)C[C@@H](O)[C@@H]1/C=C/[C@@H](O)COc1ccccc1 [16-phenoxy tetranor Prostaglandin E2],scaled lipid accumulation score,[1],inactive: ≤ 0
Cc1c[nH]c(/C=C2\C(=O)Nc3ccccc32)c1CCC(=O)O,scaled lipid accumulation score,[6],inactive: 0.001
same,scaled lipid accumulation score,[4],inactive: ≤ -0.005
same,scaled lipid accumulation score,[2],inactive: 0.017
CN[C@@H]1[C@H](O[C@H]2[C@H](O[C@H]3[C@H](O)[C@@H](O)[C@H](NC(=N)N)[C@@H](O)[C@@H]3NC(=N)N)O[C@@H](C)[C@]2(O)CO)O[C@@H](CO)[C@H](O)[C@H]1O [Dihydrostreptomycin sulfate],scaled lipid accumulation score,,inactive: ≤ 0
same,scaled lipid accumulation score,library stock concentration: 2.9 mM,inactive: 0.024
same,scaled lipid accumulation score,[2],inactive: ≤ 0
NCc1ccc(S(N)(=O)=O)cc1,scaled lipid accumulation score,[2],inactive: ≤ 0
NCc1ccc(S(N)(=O)=O)cc1 [Mafenide hydrochloride],scaled lipid accumulation score,,inactive: ≤ 0
same,scaled lipid accumulation score,library stock concentration: 9 mM,inactive: ≤ -0.001
same,scaled lipid accumulation score,[2],inactive: ≤ 0
Cc1ccccc1N=Nc1ccc(NC(=O)c2ccnn2C)c(C)c1,scaled lipid accumulation score,[2],inactive: ≤ -0.006
c1ccc(-c2n[nH]c3c2oc2ccccc23)cc1,scaled lipid accumulation score,[3],inactive: ≤ 0
same,scaled lipid accumulation score,[2],inactive: ≤ -0.001
CC/C(=C(\c1ccccc1)c1ccc(OCCN(C)C)cc1)c1ccccc1 [Tamoxifen Citrate],scaled lipid accumulation score,[3],inactive: 0.368
same,scaled lipid accumulation score,[2],inactive: 0.579
CC/C(=C(\c1ccccc1)c1ccc(OCCN(C)C)cc1)c1ccccc1 [Tamoxifen citrate],scaled lipid accumulation score,,inactive: 0.372
same,scaled lipid accumulation score,library stock concentration: 3.5 mM,inactive: 0.611
same,scaled lipid accumulation score,library stock concentration: 5.4 mM,inactive: 0.421
same,scaled lipid accumulation score,[2],inactive: 0.253 and inactive: 0.681 and inactive: 0.432
CC/C(=C(\c1ccccc1)c1ccc(OCCN(C)C)cc1)c1ccccc1 [Tamoxifen],scaled lipid accumulation score,[2],inactive: 0.674 and inactive: 0.394
same,scaled lipid accumulation score,library stock concentration: 13.5 mM,inactive: 0.777
c1ccc2oc(C3=NCCN3)cc2c1 [2-BFI hydrochloride],scaled lipid accumulation score,[2],inactive: ≤ 0
NC(CCC(=O)NC(CSN=O)C(=O)NCC(=O)O)C(=O)O [S-Nitroso-L-glutathione],scaled lipid accumulation score,[1],inactive: 0.026
